The BET-seq Pho4 binding data (Le et al. 2018)
The list shows a part of the results. The energies were worked out here from pooled read counts, against the library average; single values are noisy.

biological target: T1, Pho4 (S. cerevisiae) (UniProt P07270); test: relative binding free energy (BET-seq); higher = weaker binding; conditions: reference: library average
T1 sequence: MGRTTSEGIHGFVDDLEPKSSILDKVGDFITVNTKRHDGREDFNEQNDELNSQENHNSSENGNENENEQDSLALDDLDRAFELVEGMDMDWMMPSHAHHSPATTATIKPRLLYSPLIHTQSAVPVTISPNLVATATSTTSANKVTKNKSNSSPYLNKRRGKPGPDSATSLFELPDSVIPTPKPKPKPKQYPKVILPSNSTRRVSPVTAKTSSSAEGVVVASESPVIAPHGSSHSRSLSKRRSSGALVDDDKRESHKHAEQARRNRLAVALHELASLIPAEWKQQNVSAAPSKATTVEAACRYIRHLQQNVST

Sequence | relative binding free energy [kcal/mol]
AGTATCACGTGTGTAA | 0.1
TGGGACACGTGAAGAT | 0.35
GAGTTCACGTGAGTAA | 0.42
TCAGTCACGTGGTCGG | -0.09
TCTATCACGTGATGGG | 0.15
CGGGCCACGTGGCGGT | -0.06
GCGTACACGTGGGAGG | -0.13
GAGTTCACGTGGTATG | 0.07
GTGTACACGTGCGTTT | -0.04
GTAGTCACGTGAAAGT | 0.31
TTGGACACGTGTACTT | 0.1
GAAGGCACGTGAGCGT | 0.06
TGAATCACGTGGGGAT | -0.06
AATTGCACGTGTATAT | 0.09
TGTGGCACGTGAATCG | 0.28
CGTATCACGTGAGCGT | 0.34
AACGGCACGTGGTGGA | -0.13
TGGCACACGTGCAGGG | -0.03
GTGAGCACGTGGAAGC | 0.06
TTGAGCACGTGGTGCA | -0.2
GTTTGCACGTGGTTAA | -0.01
TGTAACACGTGATAGT | 0.18
TGGTTCACGTGCTCTT | 0.22

Sequence | relative binding free energy [kcal/mol]
AGGGACACGTGTTCGT | 0.1
CTTTTCACGTGGCGTA | 0.08
TAGGACACGTGGAGCT | 0.07
GGGGGCACGTGGGCGG | -0.15
GATGGCACGTGTAGTC | 0.04
GGGTACACGTGCAGTT | 0.16
GGTTGCACGTGTCGAG | 0.16
GGAATCACGTGGTGGA | 0.14
TGCAACACGTGGTTTG | -0.08
CGGGTCACGTGCATAT | 0.24
TTTGGCACGTGGCAAG | -0.16
TTGGGCACGTGCGCTG | -0.09
TGGGACACGTGGGATA | -0.03
ACTGTCACGTGCGGTT | 0.06
GGCTGCACGTGTAAGG | 0.15
TGTCGCACGTGCTGAG | -0.11
GTAGTCACGTGGGCGC | 0.1
CGGTGCACGTGGCTGA | -0.1
AGATTCACGTGTGCTG | 0.12
GTTTCCACGTGTGTAA | 0.23
GGGTCCACGTGTCGGG | 0.05
GTAGTCACGTGAGCGC | 0.31
GGGCCCACGTGTTGTT | -0.05

Sequence | relative binding free energy [kcal/mol]
TGTTGCACGTGCGAGT | 0.12
GTGGGCACGTGGGTAT | -0.15
TCTGGCACGTGAGGTG | 0.15
ATAAGCACGTGATGTT | 0.11
CAGTTCACGTGGTCGT | 0.21
GGTTTCACGTGTCGGC | 0.41
TGGGGCACGTGAATCT | 0.04
TAATACACGTGTGGGG | -0.03
AATGGCACGTGAGTAG | 0
AGTTTCACGTGTCTGA | 0.22
CGTATCACGTGCGTGG | -0.04
ATTAACACGTGTGGTA | -0.13
TGCATCACGTGTCGGA | 0.29
ATATGCACGTGTTTCA | -0.02
AAGTACACGTGAGTTG | 0.23
GTTAACACGTGTCGTG | 0.11
GGGAGCACGTGGTAGC | -0.09
AGACTCACGTGAGGTG | 0.21
GTAACCACGTGGTTGT | -0.07
ATTGTCACGTGGCTTT | 0
TTGTCCACGTGGGTGA | -0.11
GTGAGCACGTGATATG | 0.07
TTACTCACGTGATTTG | 0.17

Sequence | relative binding free energy [kcal/mol]
AGGGCCACGTGTTGGA | -0.07
GATGTCACGTGTACGG | 0.2
GAGAGCACGTGGTTTT | 0
ATCATCACGTGGTTGG | 0
TGCGGCACGTGGGCGT | -0.15
ATCGTCACGTGGGAGG | -0.08
AGTGGCACGTGTCTTG | -0.24
TGTTACACGTGAATGC | 0.32
GTTGCCACGTGTGAAG | 0.07
TTGGCCACGTGAGGTT | 0.14
GGGGTCACGTGAATGG | 0.38
TATTTCACGTGCTTAT | 0.19
GAATGCACGTGTTTTG | 0.06
CTTCTCACGTGTGGGT | 0.16
GGAGGCACGTGGGCAA | -0.21
GGTTGCACGTGCGGGT | -0.01
GCGATCACGTGTGTAT | 0.27
AGTGTCACGTGGTCTA | -0.11
ATGTTCACGTGATGTA | 0.33
TTGGGCACGTGGGAGG | -0.07
ATGTCCACGTGAGAGT | 0.25
TAGGACACGTGCGGGA | 0.11
CAATGCACGTGTTTGA | 0.12

Sequence | relative binding free energy [kcal/mol]
TAGTTCACGTGTACAT | 0.26
GGTTGCACGTGGTTTT | -0.01
CTTGACACGTGTTTGT | -0.05
TATGGCACGTGTTTGA | -0.19
TTCTTCACGTGTAAGG | 0.25
TATGACACGTGGTCTG | -0.1
TTGAGCACGTGTGGGA | -0.02
GGTCGCACGTGAGGGC | 0.21
TAATCCACGTGTTTGG | 0.01
GTGTCCACGTGGAATG | 0.02
TTGATCACGTGGTTTG | 0.11
GGTTTCACGTGTTATA | 0.29
TAGTGCACGTGGGGCA | -0.21
GGATTCACGTGTCAGG | 0.35
GTGATCACGTGGGACT | 0.12
GTCGGCACGTGAGCTG | 0.14
TTAGGCACGTGATCGG | -0.09
ATGGGCACGTGCGCGT | -0.24
GTCATCACGTGTTTTT | 0.21
ATGAACACGTGATGTT | 0.1
TTACGCACGTGGTTGA | -0.21
AAGATCACGTGCTGGG | 0.11
GTCGGCACGTGCGAGT | 0.1
